Measured values taken from the supplement of paper PMC4967469.
pIC50: −log10 of the molar value. IC50 is the fitted dose that halves viability relative to control wells, and lower means more sensitive; a fit beyond the top or the lowest dose is shown as a bound at that dose. AUC, from the same fit, is the share of area under the viability curve across the 256-fold dose range; the more sensitive the line, the further below 1. An inferred top dose comes from the curve model; the source does not state it.

Compound: Cc1ccc(-c2c(C(=O)CF)n(CCCO)c3ncnc(N)c23)cc1 [FMK]
Experiment: Viability of human cancer cell lines after 72 h of drug (GDSC screen)
Settings: top dose inferred
Procedure: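 Human cancer cell lines in 384-well plates, medium with 10% serum, drug for 72 h over a 256-fold dose range (nine 2-fold or five 4-fold steps up to the top dose). Adherent lines were fixed and stained with the nucleic acid dye Syto60, suspension lines read with resazurin; signal relative to control wells, capped at 0 and 100%. One two-parameter sigmoid per drug and line, fitted in a mixed model over all curves with the slope shared within a line.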

Cell Line	AUC	pIC50
MG-63 (osteosarcoma, adherent, top dose 20 µM)	0.984	< 4.70
MHH-ES-1 (Ewing sarcoma, adherent, top dose 20 µM)	0.955	< 4.70
MHH-PREB-1 (B-cell leukaemia, suspension, top dose 20 µM)	0.989	< 4.70
MIA-PaCa-2 (pancreas, adherent, top dose 20 µM)	0.983	< 4.70
MKN1 (stomach, adherent, top dose 20 µM)	0.97	< 4.70
MKN28 (stomach, adherent, top dose 20 µM)	0.982	< 4.70
MKN45 (stomach, adherent, top dose 20 µM)	0.981	< 4.70
ML-1 (thyroid, adherent, top dose 10.24 µM)	0.934	< 4.99
ML-2 (acute myeloid leukaemia, suspension, top dose 20 µM)	0.937	< 4.70
MLMA (hairy cell leukaemia, semi-adherent, top dose 20 µM)	0.942	< 4.70
MMAC-SF (melanoma, adherent, top dose 20 µM)	0.944	< 4.70
MN-60 (B-cell leukaemia, suspension, top dose 20 µM)	0.978	< 4.70
MOG-G-CCM (glioma, adherent, top dose 20 µM)	0.964	< 4.70
MOG-G-UVW (glioma, adherent, top dose 20 µM)	0.967	< 4.70
MOLM-13 (acute myeloid leukaemia, suspension, top dose 20 µM)	0.804	5.03
MOLP-8 (myeloma, suspension, top dose 20 µM)	0.908	< 4.70
MOLT-4 (lymphoblastic leukaemia, suspension, top dose 20 µM)	0.947	< 4.70
MONO-MAC-6 (acute myeloid leukaemia, suspension, top dose 20 µM)	0.874	< 4.70
MRK-nu-1 (breast, suspension, top dose 20 µM)	0.99	< 4.70
MS751 (cervix, adherent, top dose 20 µM)	0.99	< 4.70
MS-1 (small cell lung carcinoma, suspension, top dose 20 µM)	0.973	< 4.70
MSTO-211H (mesothelioma, adherent, top dose 20 µM)	0.99	< 4.70
MV-4-11 (leukaemia, suspension, top dose 20 µM)	0.914	< 4.70
MZ1-PC (pancreas, adherent, top dose 20 µM)	0.952	< 4.70
MZ2-MEL (melanoma, adherent, top dose 20 µM)	0.963	< 4.70

Cell Line	AUC	pIC50
MZ7-mel (melanoma, adherent, top dose 20 µM)	0.978	< 4.70
Mewo (melanoma, adherent, top dose 20 µM)	0.984	< 4.70
Mo-T (hairy cell leukaemia, suspension, top dose 20 µM)	0.928	< 4.70
NALM-6 (B-cell leukaemia, suspension, top dose 20 µM)	0.959	< 4.70
NAMALWA (Burkitt lymphoma, suspension, top dose 20 µM)	0.964	< 4.70
NB5 (neuroblastoma, adherent, top dose 20 µM)	0.983	< 4.70
NB69 (neuroblastoma, adherent, top dose 20 µM)	0.954	< 4.70
NB-4 (acute myeloid leukaemia, suspension, top dose 20 µM)	0.94	< 4.70
NCI-H23 (lung adenocarcinoma, adherent, top dose 20 µM)	0.983	< 4.70
NCI-H69 (small cell lung carcinoma, suspension, top dose 20 µM)	0.974	< 4.70
NCI-H82 (small cell lung carcinoma, suspension, top dose 20 µM)	0.984	< 4.70
NCI-H196 (small cell lung carcinoma, adherent, top dose 20 µM)	0.971	< 4.70
NCI-H211 (small cell lung carcinoma, adherent, top dose 20 µM)	0.98	< 4.70
NCI-H226 (lung squamous cell carcinoma, adherent, top dose 20 µM)	0.985	< 4.70
NCI-H292 (lung adenocarcinoma, adherent, top dose 20 µM)	0.968	< 4.70
NCI-H322M (lung adenocarcinoma, suspension, top dose 20 µM)	0.971	< 4.70
NCI-H345 (small cell lung carcinoma, suspension, top dose 20 µM)	0.91	< 4.70
NCI-H358 (lung adenocarcinoma, adherent, top dose 20 µM)	0.937	< 4.70
NCI-H441 (lung adenocarcinoma, adherent, top dose 20 µM)	0.977	< 4.70
NCI-H446 (small cell lung carcinoma, semi-adherent, top dose 20 µM)	0.98	< 4.70
NCI-H460 (large cell lung carcinoma, adherent, top dose 20 µM)	0.99	< 4.70
NCI-H510A (small cell lung carcinoma, semi-adherent, top dose 20 µM)	0.982	< 4.70
NCI-H520 (lung squamous cell carcinoma, adherent, top dose 20 µM)	0.97	< 4.70
NCI-H522 (lung adenocarcinoma, adherent, top dose 20 µM)	0.981	< 4.70
NCI-H524 (small cell lung carcinoma, suspension, top dose 20 µM)	0.981	< 4.70

Cell Line	AUC	pIC50
NCI-H526 (small cell lung carcinoma, suspension, top dose 20 µM)	0.987	< 4.70
NCI-H596 (lung adenocarcinoma, adherent, top dose 20 µM)	0.971	< 4.70
NCI-H630 (large intestine, adherent, top dose 20 µM)	0.977	< 4.70
NCI-H647 (non-small cell lung carcinoma, adherent, top dose 20 µM)	0.958	< 4.70
NCI-H650 (lung adenocarcinoma, adherent, top dose 20 µM)	0.979	< 4.70
NCI-H661 (large cell lung carcinoma, adherent, top dose 20 µM)	0.976	< 4.70
NCI-H716 (large intestine, suspension, top dose 20 µM)	0.944	< 4.70
NCI-H720 (lung carcinoid, suspension, top dose 20 µM)	0.992	< 4.70
NCI-H727 (lung carcinoid, adherent, top dose 20 µM)	0.944	< 4.70
NCI-H747 (large intestine, adherent, top dose 20 µM)	0.882	< 4.70
NCI-H810 (large cell lung carcinoma, adherent, top dose 20 µM)	0.988	< 4.70
NCI-H838 (lung adenocarcinoma, adherent, top dose 20 µM)	0.987	< 4.70
NCI-H841 (small cell lung carcinoma, adherent, top dose 20 µM)	0.984	< 4.70
NCI-H847 (small cell lung carcinoma, adherent, top dose 20 µM)	0.991	< 4.70
NCI-H1048 (small cell lung carcinoma, adherent, top dose 20 µM)	0.99	< 4.70
NCI-H1155 (large cell lung carcinoma, suspension, top dose 20 µM)	0.992	< 4.70
NCI-H1299 (large cell lung carcinoma, adherent, top dose 20 µM)	0.959	< 4.70
NCI-H1304 (small cell lung carcinoma, suspension, top dose 20 µM)	0.988	< 4.70
NCI-H1355 (lung adenocarcinoma, adherent, top dose 20 µM)	0.978	< 4.70
NCI-H1395 (lung adenocarcinoma, adherent, top dose 20 µM)	0.97	< 4.70
NCI-H1417 (small cell lung carcinoma, suspension, top dose 20 µM)	0.979	< 4.70
NCI-H1435 (lung adenocarcinoma, semi-adherent, top dose 20 µM)	0.988	< 4.70
NCI-H1436 (small cell lung carcinoma, suspension, top dose 20 µM)	0.959	< 4.70
NCI-H1437 (lung adenocarcinoma, adherent, top dose 20 µM)	0.974	< 4.70
NCI-H1563 (lung adenocarcinoma, adherent, top dose 20 µM)	0.964	< 4.70
